The whole screen tested about 310,000 compounds, of which about 2,200 (0.71%) showed an effect of 50% or more. The effect is printed as a negative number. Some of the results follow.
Target: human ether-à-go-go-related gene (hERG) potassium channel (human, UniProt Q12809)
Test: primary screen, population patch clamp on CHO cells stably expressing hERG

Sequence of human ether-à-go-go-related gene (hERG) potassium channel (Q12809 whole entry, looked up): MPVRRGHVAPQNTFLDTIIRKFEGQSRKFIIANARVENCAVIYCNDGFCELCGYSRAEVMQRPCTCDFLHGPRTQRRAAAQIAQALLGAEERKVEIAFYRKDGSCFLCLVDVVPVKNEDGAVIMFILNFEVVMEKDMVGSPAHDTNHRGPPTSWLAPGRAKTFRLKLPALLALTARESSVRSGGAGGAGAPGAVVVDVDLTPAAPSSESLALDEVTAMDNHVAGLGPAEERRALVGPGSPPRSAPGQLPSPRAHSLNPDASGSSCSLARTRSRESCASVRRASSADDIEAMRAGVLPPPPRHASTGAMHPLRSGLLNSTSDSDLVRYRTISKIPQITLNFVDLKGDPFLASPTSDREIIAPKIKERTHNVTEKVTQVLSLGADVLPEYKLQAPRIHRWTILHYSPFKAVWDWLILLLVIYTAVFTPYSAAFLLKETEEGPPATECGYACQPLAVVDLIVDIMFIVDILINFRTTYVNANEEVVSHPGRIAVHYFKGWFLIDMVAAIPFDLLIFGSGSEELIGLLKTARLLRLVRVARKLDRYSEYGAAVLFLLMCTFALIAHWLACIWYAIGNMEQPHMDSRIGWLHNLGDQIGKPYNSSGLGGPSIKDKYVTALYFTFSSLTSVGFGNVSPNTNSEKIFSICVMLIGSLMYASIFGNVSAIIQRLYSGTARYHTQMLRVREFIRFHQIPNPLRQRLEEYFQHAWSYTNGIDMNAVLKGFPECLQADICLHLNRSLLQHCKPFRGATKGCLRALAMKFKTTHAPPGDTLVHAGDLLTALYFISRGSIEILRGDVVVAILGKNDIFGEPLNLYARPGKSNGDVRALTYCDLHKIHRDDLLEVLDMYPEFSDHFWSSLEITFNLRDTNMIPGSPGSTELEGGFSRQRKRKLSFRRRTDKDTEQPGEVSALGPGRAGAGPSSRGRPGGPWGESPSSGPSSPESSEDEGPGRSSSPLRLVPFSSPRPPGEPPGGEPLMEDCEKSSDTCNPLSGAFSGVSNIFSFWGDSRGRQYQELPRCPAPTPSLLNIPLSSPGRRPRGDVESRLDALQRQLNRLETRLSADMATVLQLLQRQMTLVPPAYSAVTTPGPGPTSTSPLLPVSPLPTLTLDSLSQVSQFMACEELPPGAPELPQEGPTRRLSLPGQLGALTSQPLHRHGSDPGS

Compared with `O=C(Nc1ccc(O)c(-c2nc3ccccc3o2)c1)C1(c2ccccc2)CCCC1`, `O=C(Nc1ccccc1)c1ccc2ccccc2n1` is lower in “hERG current change (%, negative = inhibition) at 1uM” value: 18.9% for the first, 13.6% for the second.

Going from `COc1ccc2c(c1)c(C(O)CN1CCN(Cc3ccc4c(c3)OCO4)CC1)c(C)n2C` (stereo not shown) to `CC1CCN(C(=O)Cn2c(=O)n(Cc3ccc4c(c3)OCO4)c(=O)c3ccccc32)CC1`, the “hERG current change (%, negative = inhibition) at 1uM” value falls from 12.5% to 2.21%.

First: CCOc1ccc(C2C(C#N)=C(N)Oc3n[nH]c(C)c32)cc1OC(=O)C1CC1 (stereo not shown)
Second: CCOC(=O)c1[nH]ncc1CN1CCCC(C(=O)c2ccc(SC)cc2)C1 (stereo not shown)
The “hERG current change (%, negative = inhibition) at 1uM” value of the first is higher: 13.7% for the first, -38% for the second.

Compared with `Br.C=CCN1C(c2cccc(C(F)(F)F)c2)=CS/C1=C(/C#N)c1nnc(N2CCOCC2)n1-c1ccccc1`, `O=c1[nH]c(C2CCN(S(=O)(=O)c3cccc(C(F)(F)F)c3)CC2)nc2c1nnn2Cc1cccc(F)c1` is higher in “hERG current change (%, negative = inhibition) at 1uM” value: 6.73% for the first, 21.1% for the second.

First: O=C(Cc1ccccc1)Nc1cccnc1
Second: O=C(OCc1ccccc1)Oc1cncc(C(=O)O)c1
The “hERG current change (%, negative = inhibition) at 1uM” value of the first is higher: 8.29% for the first, -6.94% for the second.

Compared with `CCSC1=NCCN1C(=O)Cc1ccc(-c2ccccc2)cc1`, `O=C(c1cccs1)N1CCN=C1SCc1cccnc1` is lower in “hERG current change (%, negative = inhibition) at 1uM” value: 12% for the first, 11.4% for the second.

First: CSc1nc(N2CCOCC2)cc(N2CCOCC2)n1
Second: CC1(C)Cc2c(c(N3CCOCC3)nc3snc(Br)c23)CO1
The “hERG current change (%, negative = inhibition) at 1uM” value of the first is higher: 9.32% for the first, 2.81% for the second.

First: O=C(COc1ccccc1Br)N1CCN(C(=O)c2ccco2)CC1
Second: O=C(COc1ccccc1Cl)N1N=C(c2cccs2)CC1c1ccco1 (stereo not shown)
The “hERG current change (%, negative = inhibition) at 1uM” value of the first is lower: 4.04% for the first, 15.1% for the second.

Going from `CCN(CC)CCCNC(CC(=O)Nc1cccc([N+](=O)[O-])c1)C(=O)O` (stereo not shown) to `CCCCC(C(=O)O)C(C)CC(=O)Nc1nncs1` (stereo not shown), the “hERG current change (%, negative = inhibition) at 1uM” value rises from 3.62% to 8.95%.

First: CNS(=O)(=O)c1cccc(C(=O)OCc2cc(=O)oc3c(C)c(O)ccc23)c1
Second: COc1cc(C(=O)OCc2cc(=O)oc3c(C)c(C)ccc23)ccc1OC(F)F
The “hERG current change (%, negative = inhibition) at 1uM” value of the first is higher: 14.5% for the first, 7.96% for the second.

Compared with `Cc1csc(NC(=O)C2CCCC2)n1`, `Cc1csc(NC(=O)C2CCN(S(=O)(=O)c3ccccc3F)CC2)n1` is lower in “hERG current change (%, negative = inhibition) at 1uM” value: 13.9% for the first, 9.11% for the second.

First: CCc1cccc(NC(=O)Cn2ncn3c(cc4ccccc43)c2=O)c1
Second: COc1ccc(-n2c(SCC(=O)Nc3cccc(S(N)(=O)=O)c3)nc3ccccc3c2=O)cc1OC
The “hERG current change (%, negative = inhibition) at 1uM” value of the first is lower: -0.136% for the first, 10.1% for the second.

Compared with `COc1ccc(C(CC(=O)Nc2ccccn2)N2Cc3ccccc3C2=O)cc1OC` (stereo not shown), `COc1ccccc1C(=O)N/N=C(\C)CC(=O)Nc1ccccn1` is higher in “hERG current change (%, negative = inhibition) at 1uM” value: 6.13% for the first, 19.4% for the second.

Going from `COc1ccc(C(=O)N/N=C(/C)c2cccc(NC(=O)c3ccncc3)c2)cc1OC` to `COc1ccc(-c2nn(CCC#N)cc2C(=O)Nc2cccc(C(=O)O)c2)cc1OC`, the “hERG current change (%, negative = inhibition) at 1uM” value falls from 17.2% to 11.4%.

Going from `CCCCn1c(SCC(=O)Nc2cc(C(F)(F)F)cc(C(F)(F)F)c2)nnc1C(CC)N(C)C` (stereo not shown) to `CCN(CC)c1ccc(NC(=O)CSc2nnc3nc(C)cc(C)n23)cc1`, the “hERG current change (%, negative = inhibition) at 1uM” value rises from 1.38% to 5.63%.

Compared with `CC(C)CC(=O)Nc1ccc2c3c(cccc13)CC2`, `CC(C)CNC(=O)c1cc(-c2ccco2)on1` is lower in “hERG current change (%, negative = inhibition) at 1uM” value: 9.67% for the first, 8.3% for the second.

Going from `C/C(=N\NS(=O)(=O)c1ccc([N+](=O)[O-])cc1)c1ccc2c(c1)OCO2` to `O=C(Nc1ccc2c(c1)OCO2)c1ccc(Cl)nc1`, the “hERG current change (%, negative = inhibition) at 1uM” value falls from 15.1% to 11.6%.

Compared with `COC(=O)c1ccccc1NC(=O)CCS(=O)(=O)c1cc2c(cc1C)NC(=O)CO2`, `CCOC(=O)c1c(CSC(=N)N)n(-c2ccccc2)c2cc(Br)c(OC(C)=O)cc12` is lower in “hERG current change (%, negative = inhibition) at 1uM” value: -28.7% for the first, -57.4% for the second.

Compared with `CC(C)c1c(C(=O)N/N=C/c2ccccc2OCc2c(F)cccc2Cl)nnn1-c1nonc1N`, `COc1ccccc1OCCNC(=O)c1cc(SC)ccc1Cl` is lower in “hERG current change (%, negative = inhibition) at 1uM” value: 19.7% for the first, 12% for the second.

Going from `O=C(COC(=O)Cc1cccc(C(F)(F)F)c1)NC1CCS(=O)(=O)C1` (stereo not shown) to `CC(C)CN(C(=O)COC(=O)c1ccc(C#N)cc1)C1CCS(=O)(=O)C1` (stereo not shown), the “hERG current change (%, negative = inhibition) at 1uM” value falls from -1.84% to -8.88%.

Compared with `COC(=O)CCC(=O)OC1(C)C(=O)C=C2C=C(C3CC3)N(Cc3ccc4c(c3)OCO4)C=C2C1=O` (stereo not shown), `O=C(Nc1ccc2c(c1)OCO2)c1noc2c1CCCCC2` is lower in “hERG current change (%, negative = inhibition) at 1uM” value: 8.45% for the first, -2.66% for the second.

First: COC(=O)COc1ccc2oc(=O)cc(-c3cc4cccc(OC)c4o3)c2c1
Second: COc1ccc(-n2c(=S)[nH]c3cc(C(=O)Nc4ccc(F)cc4)ccc3c2=O)c(OC)c1
The “hERG current change (%, negative = inhibition) at 1uM” value of the first is higher: 18.9% for the first, 11.8% for the second.

First: Cc1ccc(OCCCCN2CCCCC2)c(C)c1
Second: COc1ccc(OCC(O)Cn2c(N3CCCCC3)nc3c2c(=O)[nH]c(=O)n3C)cc1 (stereo not shown)
The “hERG current change (%, negative = inhibition) at 1uM” value of the first is lower: 7.06% for the first, 11.8% for the second.

Compared with `COc1cc(-c2nnc3sc(C4CCCCC4)nn23)cc(OC)c1OC`, `CCOc1ncccc1C(=O)OCC(=O)c1cc(OC)c(OC)c(OC)c1` is higher in “hERG current change (%, negative = inhibition) at 1uM” value: 2% for the first, 17.8% for the second.

First: COc1ccc(N=C2S/C(=C\c3ccc(C)s3)C(=O)N2CC(C)C)cc1
Second: COc1ccc(-c2oc(/N=C/N3CCCC3)c(C#N)c2-c2ccc(OC)cc2)cc1
The “hERG current change (%, negative = inhibition) at 1uM” value of the first is higher: 8.07% for the first, -3.54% for the second.

Compared with `CCNC(=S)N1CCN(c2ccc([N+](=O)[O-])cc2)CC1`, `CCc1nnc(SCC(=O)Nc2ccc(N3CCN(S(C)(=O)=O)CC3)cc2)o1` is higher in “hERG current change (%, negative = inhibition) at 1uM” value: -50.5% for the first, 7.72% for the second.

Compared with `Cc1ccc(-n2nnnc2CNC(=O)c2ccc([N+](=O)[O-])o2)cc1C`, `Cc1nn(Cc2ccc(Cl)cc2)c(C)c1NC(=O)Cn1nc([N+](=O)[O-])c(Cl)c1C` is higher in “hERG current change (%, negative = inhibition) at 1uM” value: 4.38% for the first, 15% for the second.

First: CN(C)C(CNC(=O)c1ccc(NS(=O)(=O)c2ccc(F)cc2)cc1)c1ccco1 (stereo not shown)
Second: COc1ccc(CN(C)C(=O)c2ccc(NS(=O)(=O)c3ccc(F)cc3)cc2)c(OC)c1
The “hERG current change (%, negative = inhibition) at 1uM” value of the first is lower: 3.9% for the first, 4.73% for the second.

First: CCCCN1C(=O)C(=O)N(CC(=O)Nc2sc(CC)cc2C(=O)OCC)C1=O
Second: CCCCN(C(=S)NC(=O)c1cc(OC)c(OC)c(OC)c1)c1c(N)n(Cc2ccccc2)c(=O)[nH]c1=O
The “hERG current change (%, negative = inhibition) at 1uM” value of the first is lower: 4.03% for the first, 13.7% for the second.

First: CC(CNC(=O)CCc1ccccc1)NC(=O)CCc1ccccc1 (stereo not shown)
Second: Cc1cccc(NC(=O)c2nc[nH]c2C(=O)N[C@@H](Cc2ccccc2)C(=O)OC(C)(C)C)c1
The “hERG current change (%, negative = inhibition) at 1uM” value of the first is lower: 4.06% for the first, 21.4% for the second.

Compared with `CC1(C)CC(=O)C(C=NCCN2CCNCC2)=C(O)C1`, `CC(C)C[C@@H]1NC(=O)N(CCN2CCOCC2)C1=O` is lower in “hERG current change (%, negative = inhibition) at 1uM” value: 15.2% for the first, 11% for the second.

Going from `O=C(Nc1ccc(C2=NCCN2)cc1)c1ccc(Cl)c(C(=O)Nc2ccc(C3=NCCN3)cc2)c1` to `CCN(CC(=O)Nc1ccc(NC(C)=O)cc1)C(=O)CCCOc1ccc(C(C)(C)C)cc1`, the “hERG current change (%, negative = inhibition) at 1uM” value rises from 9.74% to 21%.

Going from `CC(Nc1[nH]c(=O)n(C)c(=O)c1N=O)c1ccccc1` (stereo not shown) to `Cn1c(Oc2ccccc2)c(C=O)c2ccccc21`, the “hERG current change (%, negative = inhibition) at 1uM” value rises from 2.2% to 12.7%.

First: Cc1cc(C)cc(NC(=O)N2CCN(S(C)(=O)=O)CC2)c1
Second: CCc1noc(C)c1C(=O)N1CCN(S(=O)(=O)c2c(C)cc(C)cc2C)CC1
The “hERG current change (%, negative = inhibition) at 1uM” value of the first is higher: 15.2% for the first, 8.08% for the second.

Going from `CCn1c(SCC(=O)OC)nnc1-c1ccccc1` to `Cc1cc2ncc(C(=O)Nc3ccccc3)c(C)n2n1`, the “hERG current change (%, negative = inhibition) at 1uM” value falls from -3.28% to -3.69%.

First: Cc1ccccc1Oc1cc(NC(=O)Cn2cnc([N+](=O)[O-])c2)cc([N+](=O)[O-])c1
Second: O=C(CSc1nc2ncccc2[nH]1)Nc1ccccc1-c1ccccc1
The “hERG current change (%, negative = inhibition) at 1uM” value of the first is lower: 3.29% for the first, 19% for the second.

First: O=S(=O)(c1cc(Br)c(Cl)s1)N1CCCC1
Second: CN1CCC(OC(=O)c2ccc(Cl)cc2Cl)CC1.Cl
The “hERG current change (%, negative = inhibition) at 1uM” value of the first is higher: 11.2% for the first, -13.2% for the second.

Going from `Cc1nc2c(-c3ccc(F)cc3)c(C)nn2c(C)c1CCC(=O)NCCN1CCOCC1` to `O=C(CN1C(=O)c2cccc3cccc1c23)Nc1ccc(S(=O)(=O)N2CCOCC2)cc1`, the “hERG current change (%, negative = inhibition) at 1uM” value falls from 5.68% to -4.12%.

Compared with `O=C(c1cc2nc(-c3ccccc3)cc(-c3ccccc3)n2n1)N1CCC2(CC1)OCCO2`, `c1ccc(C2CC(c3ccccc3)n3c(nc4ccccc43)N2)cc1` (stereo not shown) is higher in “hERG current change (%, negative = inhibition) at 1uM” value: -9.59% for the first, 9.43% for the second.

Compared with `COc1ccc(/C=N/OCC(=O)N2CC3(C)CC2CC(C)(C)C3)cc1OC` (stereo not shown), `Cc1ccc(C)n1-c1nnc(N2CCC(C(=O)NCCCN3CCN(C)CC3)CC2)s1` is lower in “hERG current change (%, negative = inhibition) at 1uM” value: 8.59% for the first, 2.56% for the second.

Compared with `CCOC(=O)C(C)(C)C(=O)C(C)(C)C(O)c1ccccn1` (stereo not shown), `COC(=O)CSc1cc(SCC(=O)OC)c(C#N)c(SCC(=O)OC)c1` is higher in “hERG current change (%, negative = inhibition) at 1uM” value: -0.225% for the first, 4.23% for the second.

First: N#CC1=C(N)C(C#N)(C#N)C(c2cccnc2)C2COCC=C12 (stereo not shown)
Second: Cc1cc(NC(=O)CSc2nc3c(c(-c4cccnc4)c2C#N)CCC3)no1
The “hERG current change (%, negative = inhibition) at 1uM” value of the first is lower: 1.75% for the first, 12.2% for the second.

In the case of `O=C(NNC(=O)c1cc2cc3ccccc3nc2s1)c1cccc(Cl)c1`, the “hERG current change (%, negative = inhibition) at 1uM” value is reported as -4.08%.
